Measurements published in publication PMC7819943, “Rice protein-binding microarrays: a tool to detect cis-acting elements near promoter regions in rice”.
Some of the results follow.

Each sequence was assayed against T1, OsWOX13 (Oryza sativa, UniProt Q5QMM3 1-267) (assay: protein-binding microarray (RPBM); PBS, 2% BSA, 51.3 ng/ul salmon testes DNA, 50 uM zinc acetate, 200 nM TF, 25 C, 1 h; high values mean tight binding). Details: protein: recombinant; tags: N-terminal polyhistidine and DsRed monomer fusion (pET32a); label: CyDye5-dUTP incorporated in the synthesized complementary strand; 3' TTTTT single-stranded linker to array surface; dsDNA, one strand shown.
T1 sequence: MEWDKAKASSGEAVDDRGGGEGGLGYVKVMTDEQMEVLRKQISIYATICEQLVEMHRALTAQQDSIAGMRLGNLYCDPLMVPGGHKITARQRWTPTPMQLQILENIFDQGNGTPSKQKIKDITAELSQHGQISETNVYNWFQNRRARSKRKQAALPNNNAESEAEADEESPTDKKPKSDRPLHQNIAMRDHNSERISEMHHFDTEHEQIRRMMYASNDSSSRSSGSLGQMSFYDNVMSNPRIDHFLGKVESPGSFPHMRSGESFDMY
Method in brief: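 For the binding signal, per-feature fluorescence intensity was read in arbitrary units on an Axon 4000B scanner. Before scanning, a 2% BSA-blocked custom Agilent array made double-stranded with Cy5-dUTP was washed after 1 h at 25 °C with 200 nM protein and 50 µM zinc acetate. The proteins were Ni–NTA-purified transcription factors with N-terminal polyhistidine and DsRed fusions, expressed in E. coli BL21-CodonPlus.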

Sequence	binding signal
AAAATTTGATAAGGTTTATTTTGGATAATCTGAACAGCCCCGGAGTCACCTAGTGCAG	4300 fluorescence intensity (a.u.)
CAATTTAATGGCCAATTTATACAATAGTTACCGATAAACACGGAGTCACCTAGTGCAG	6060 fluorescence intensity (a.u.)
AGTCAATTACCAGTTATCACAACAATCCTCCTGGTAGAAACGGAGTCACCTAGTGCAG	25700 fluorescence intensity (a.u.)
TAGACTAATTTTCGAAAGTTAAAACATTTGATGTCACGCACGGAGTCACCTAGTGCAG	4680 fluorescence intensity (a.u.)
GTCTGATGGATAGCCGTCCGATCCGCGCGGCTCGATCGCACGGAGTCACCTAGTGCAG	8760 fluorescence intensity (a.u.)
CCCTAACTTGCATAATTTAATTACCATTTCTCTACCAAGACGGAGTCACCTAGTGCAG	14900 fluorescence intensity (a.u.)
TTGGTGATTGAATCTGAACATGCTGGCCTTTGGGATGACTCGGAGTCACCTAGTGCAG	28400 fluorescence intensity (a.u.)
GATTTATGATTAATGGATTATAACTTTACACTAATATAGGCGGAGTCACCTAGTGCAG	28600 fluorescence intensity (a.u.)
CTAGTGCAATCACTCAAGATCTGATCAGATCAAACCATTCCGGAGTCACCTAGTGCAG	4680 fluorescence intensity (a.u.)
AATTGATTATAGATGATGTTCTAAATTTTGGAGCTGGTAGCGGAGTCACCTAGTGCAG	44800 fluorescence intensity (a.u.)
ACGAATCTATTGAGCCTAATTAATTCATAATTAGTCTATGCGGAGTCACCTAGTGCAG	14600 fluorescence intensity (a.u.)
AAGATTGATACACGGAATTCATCTGCTACAGGAAAGCATTCGGAGTCACCTAGTGCAG	28500 fluorescence intensity (a.u.)
GAAATGACAGATGAATGTACAGTACCGCAAAGCTAGCCCTCGGAGTCACCTAGTGCAG	9750 fluorescence intensity (a.u.)
TATGTGTGATTTAACTTGGATAAATTTTAGAGGCTAAATTCGGAGTCACCTAGTGCAG	7520 fluorescence intensity (a.u.)
ATGATTTATGATCATACTTAGGTGCTTCGATAAATTATTGCGGAGTCACCTAGTGCAG	17700 fluorescence intensity (a.u.)
TTCCTGCGATTCAATCAAACGGTCATTCCTGTGTTTTGCACGGAGTCACCTAGTGCAG	6180 fluorescence intensity (a.u.)
TACTAATGATAGATTAATTAGGCTTAATAAATTCGTCGCACGGAGTCACCTAGTGCAG	37100 fluorescence intensity (a.u.)
TTAATTAGGGGAAACTGGACGAAAACCACCACTACAACCACGGAGTCACCTAGTGCAG	7800 fluorescence intensity (a.u.)
ATGTATGGAATCAGAAGATTGGCATTTTGACGTACTGCTACGGAGTCACCTAGTGCAG	4440 fluorescence intensity (a.u.)
GAATAATTCACTTGATGGGCATGTCATCGCTTATTAACACCGGAGTCACCTAGTGCAG	9640 fluorescence intensity (a.u.)
TGTTTGATTTGTTTTCTTTCAATTTTGGCATTCAAATTTACGGAGTCACCTAGTGCAG	13700 fluorescence intensity (a.u.)

Sequence	binding signal
TTGAATAATTGTGTGTTCCTTATCTTGGTCTGGTCACTTTCGGAGTCACCTAGTGCAG	7460 fluorescence intensity (a.u.)
CCAATGTTATTGATTTGGAACGCCCAGATGGTATAATTGTCGGAGTCACCTAGTGCAG	14000 fluorescence intensity (a.u.)
GACAATAATCGAGATTGAATTTGTGAAATAACAGGATAATCGGAGTCACCTAGTGCAG	7060 fluorescence intensity (a.u.)
TTGTAGGATTGGCAATTCCTTTGGATTTGGCACTGTTTATCGGAGTCACCTAGTGCAG	12000 fluorescence intensity (a.u.)
TTTGACTGTAAATCGGAATAAGATCTGGAATAATGATCTACGGAGTCACCTAGTGCAG	10600 fluorescence intensity (a.u.)
CGCTAAAATTTAGTTTCTTTTCATATTCTCTAGCTGATTTCGGAGTCACCTAGTGCAG	4310 fluorescence intensity (a.u.)
AAATTCAAATTTTATATAGTTCAATCAAACTTGGATGAAGCGGAGTCACCTAGTGCAG	5260 fluorescence intensity (a.u.)
AGATCATGATTTGCATGATATGCATCTGGATTTAACAAGTCGGAGTCACCTAGTGCAG	16100 fluorescence intensity (a.u.)
GGAATTCCCTCCCAATTACCTGCCCCTACCCAGGTATTGACGGAGTCACCTAGTGCAG	3340 fluorescence intensity (a.u.)
TTGTTACTCGTGATTTGGAAGAAATTATCTGATTCTGTTTCGGAGTCACCTAGTGCAG	4560 fluorescence intensity (a.u.)
GTAAATTACACATAACTGTTAACTGTTTTAAGAGTAAGTTCGGAGTCACCTAGTGCAG	41900 fluorescence intensity (a.u.)
ATTTTCCGTCCCCTTACCACGCTATTTCTCACGATTAATACGGAGTCACCTAGTGCAG	3300 fluorescence intensity (a.u.)
ATGGTTGTGATTTGTTTAGGTCGAGTAAAGGAGGAATTCCCGGAGTCACCTAGTGCAG	9110 fluorescence intensity (a.u.)
GACGTTTAGATAGATTAATATGAAGACATTTTGCTTTTGGCGGAGTCACCTAGTGCAG	13000 fluorescence intensity (a.u.)
AGGACTGCTTATCAATTATCAAGTCGAAGTTTGGCTATTGCGGAGTCACCTAGTGCAG	5050 fluorescence intensity (a.u.)
AAACACCTAAAAGCAATTAATTGTACACTTATGATTTCCTCGGAGTCACCTAGTGCAG	8280 fluorescence intensity (a.u.)
CAATGATTGGGGTCCGACATTAGGCTCCACCTTAGGGTTGCGGAGTCACCTAGTGCAG	42900 fluorescence intensity (a.u.)
ACTTAATTATTTGTAGACAAAGCAATGCATGACATACCTCCGGAGTCACCTAGTGCAG	29700 fluorescence intensity (a.u.)
AGTTGCACTGTAATTATAGTGTAATTACGTGTAGTAACACCGGAGTCACCTAGTGCAG	9670 fluorescence intensity (a.u.)
GCGCATTCCTTGCTTAATTAATGGGCTGTCAGTGGGCGAACGGAGTCACCTAGTGCAG	3740 fluorescence intensity (a.u.)
AGTGAATCTTAAATTGAAGCAAAACGAATCGGATTTGGTTCGGAGTCACCTAGTGCAG	6420 fluorescence intensity (a.u.)
